Data on 93 compounds can be found in PubChem BioAssay AID1347073 (National Center for Advancing Translational Sciences (NCATS), 2019).

Hit rate of the full screen: of about 45,000 compounds, about 200 (0.44%) were called active. Roughly 7% stayed inconclusive and do not appear here. The call rests on the fitted dose curve; in most records, active means well fitted activation curve with a large enough effect; inconclusive means small, poorly fitted or top-dose-only effect; inactive means no such curve, though single readings can be large or run the other way. This is one part of the list.

A short description of the test: qHTS of TDP-43 Inhibitors: NCGC Sytravon Library Screen. Further: 0% is about no effect; nearly all actives have a fitted effect of over 55% in size. The settings on record: yeast TDP-43 toxicity rescue, BacTiter-Glo growth, 24 h; at 46.1 µM (top of the series). The procedure, abridged: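 TDP-43-expressing yeast, pregrown in raffinose, seeded at OD600 0.02 in galactose medium with compound for 24 hr at 30 deg C. Growth read by BacTiter-Glo luminescence, so rescue of toxicity appears as activation.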
In general terms: qHTS replaces the single test concentration by a dilution series.
With `O=C(CN1CCCC1)Nc1ccc(Cl)cc1C(=O)c1ccccc1`, the growth rescue (activation) is inactive: -1.66%.

In the case of `Cc1ccc(OCC(=O)Nc2ccc(Cl)cc2C(=O)c2ccccc2)cc1`, the growth rescue (activation) was inactive: -1.38%.

`Cc1ccc(-c2nn(CCC#N)cc2C(=O)O)cc1C`: the growth rescue (activation) is inactive: 6.74%.

For the compound `Cn1c(O)c(C=NC2CCCCC2)c(=O)[nH]c1=S`, the growth rescue (activation) was inactive: -1.49%.

Regarding `CC(C)(C)c1ccc(O)c(N=Cc2c(O)ccc3ccccc23)c1`, the growth rescue (activation) was inactive: -21.4%.

For `C=CCn1c(O)c(/C=C2\C=Nc3ccccc32)c(=O)[nH]c1=O`, the growth rescue (activation) was inactive: 1.05%.

As to `Cn1cccc1/C=C1\C(=O)NC(=O)N(Cc2ccccc2Cl)C1=O`, the growth rescue (activation) is inactive: -13.3%.

Take `O=c1c2ccccc2nc(Cc2cccc([N+](=O)[O-])c2)n1-c1ccc(O)cc1`: the growth rescue (activation) was inactive: 15.5%.

For `Cc1ccc(C(=O)C2CN3CCC2CC3)cc1` (stereo not drawn), the growth rescue (activation) is inactive: 2.39%.

For the compound `Nc1c(C(=O)NCC2CCCO2)c2nc3ccccc3nc2n1Cc1ccco1` (stereo not drawn), the growth rescue (activation) is inactive: 14%.

For `CCCSP1(=S)NCCCO1` (stereo not drawn), the growth rescue (activation) is inactive: 1.25%.

For `C[C@H]1CC2C3CC=C4C[C@@H](O)CC[C@]4(C)C3CC[C@]2(C)[C@H]1O` (stereo partly drawn), the growth rescue (activation) is inactive: 5.51%.

Consider `C/C(=N\Nc1ccccc1)c1c(O)n(C)c(=O)n(C)c1=O`, for which the growth rescue (activation) was inactive: -28.3%.

Take `Cc1ccc(-n2c(O)c(/C=N/Nc3ccccc3)c(=O)[nH]c2=O)cc1C`: the growth rescue (activation) was inactive: -7.65%.

As for `Cc1cc(C)cc(N2C(=O)/C(=C\c3ccc(N4CCN(C)CC4)o3)C(=O)NC2=S)c1`, the growth rescue (activation) is inactive: -2.04%.

On to `O=C(O)[C@H]1NC[C@H]2C[C@H]21`, for which the growth rescue (activation) was inactive: -4.91%.

Consider `Cc1cccc(-n2c(O)c(C=Nc3ccc(S(N)(=O)=O)cc3)c(=O)[nH]c2=O)c1`, for which the growth rescue (activation) is inactive: -13.9%.

For `C1CNC2NCCNC2N1` (stereo not drawn), the growth rescue (activation) is inactive: -0.0793%.

With `CC(C)CN1CCN(Cc2ccc(C(F)(F)F)cc2)CC1CCO` (stereo not drawn), the growth rescue (activation) was inactive: -5.31%.

Consider `O=S(=O)(c1ccccc1)N1CN2CCN(C2)C1`, for which the growth rescue (activation) was inactive: 27.4%.

Consider `Cc1sc(-n2c(C)cc(C=C3C(=O)NC(=O)NC3=O)c2C)c(C#N)c1C`, for which the growth rescue (activation) is inactive: -2.98%.

For `CC(C)(C)c1ccc(C(=O)C2CCCN(C3CCC3)C2)cc1` (stereo not drawn), the growth rescue (activation) is inactive: 9.89%.

As to `CCCCCn1c(=O)c(C(=O)Nc2ccccc2S(N)(=O)=O)c(O)c2ccccc21`, the growth rescue (activation) was inactive: 1.51%.

For the compound `CCN1C(=O)C(=C2C=C(C)N(Cc3ccco3)C(C)=C2)C(=O)N(CC)C1=S`, the growth rescue (activation) was inactive: 14.9%.

For the compound `COc1ccc(-c2nn(CCC#N)cc2C(=O)O)cc1`, the growth rescue (activation) is inactive: 5.6%.

With `Cc1cccc(CN2CCCC(C(=O)c3ccc(C(F)(F)F)cc3)C2)n1` (stereo not drawn), the growth rescue (activation) was inactive: -2.29%.

Regarding `Clc1ccc(CNC2CN3CCC2CC3)cc1` (stereo not drawn), the growth rescue (activation) was inactive: -7.57%.

Consider `CCNC(=S)N(C)CCc1cc2c(c(OC)c1C=C1C(=O)N(C)C(=O)N(C)C1=O)OCO2`, for which the growth rescue (activation) was inactive: -6.6%.

Consider `CC(Cc1ccccc1)NC(=O)CCCCC(=O)NC(C)Cc1ccccc1` (stereo not drawn), for which the growth rescue (activation) is inactive: -19.4%.

Turning to `O=C(c1cccc(C(F)(F)F)c1)C1CCCN(Cc2ncc[nH]2)C1` (stereo not drawn), the growth rescue (activation) was inactive: -1.04%.

Turning to `Clc1cccc(CNCCc2ccc3c(c2)OCO3)c1`, the growth rescue (activation) is inactive: 7.78%.

As to `C[C@]12CC[C@H](O)CC1=CCC1C2CC[C@@]2(C)C1CC[C@@H]2OCc1ccccc1` (stereo partly drawn), the growth rescue (activation) is inactive: 5.15%.

`O=C(CNC(=O)OCc1ccccc1)NCC(=O)Nc1ccc(Br)cc1C(=O)c1ccccc1`: the growth rescue (activation) was inactive: 1.01%.

Take `COP(=O)(OC)/C(C=O)=N/Nc1ccc([N+](=O)[O-])cc1`: the growth rescue (activation) is inactive: 24.6%.

As for `O=C(O)c1cccc2c1NC(c1cccc([N+](=O)[O-])c1)C1CC(Sc3ccccc3[N+](=O)[O-])C(Cl)C21` (stereo not drawn), the growth rescue (activation) is inactive: 3.82%.

For the compound `CCc1ccc2c(CN3CC=C(c4ccccc4)CC3)cc(=O)oc2c1`, the growth rescue (activation) is inactive: 6.02%.

As for `Cc1cc(C=C2C(=O)NC(=O)NC2=O)c(C)n1-c1cccnc1`, the growth rescue (activation) is inactive: -1.43%.

In the case of `CNC(=O)Oc1ccc2ncccc2c1`, the growth rescue (activation) was inactive: 33.8%.

Take `NC(=O)Cn1cc(C(=O)c2ccccc2)c2ccccc21`: the growth rescue (activation) is inactive: 1.32%.

For `C[N+]12CCC(CC1)C(C(O)(c1cccc(Cl)c1)c1cccc(Cl)c1)C2` (stereo not drawn), the growth rescue (activation) was inactive: 1.93%.

With `C[C@]12CCC3C(CC[C@H]4C[C@@H](O)CC[C@]34C)C1CC[C@@H]2O` (stereo partly drawn), the growth rescue (activation) was inactive: 7.27%.

Turning to `CC1COC2N=C(N[N+](=O)[O-])NC2O1` (stereo not drawn), the growth rescue (activation) was inactive: 6.92%.

For `CC(Cc1ccccc1)NC(=O)NC(C)Cc1ccccc1` (stereo not drawn), the growth rescue (activation) was inactive: 3.09%.

For the compound `O=C(Cc1ccccc1)N1CCN(Cc2ccc(Cl)cc2)CC1`, the growth rescue (activation) is inactive: -8.04%.

For the compound `COc1ccc(P2(=O)Nc3ccccc3N2)cc1`, the growth rescue (activation) was inactive: 8.1%.

As to `O=C1NC(=S)N(C2CC2)C(=O)/C1=C/c1ccc2c(c1)CCN2CCCCl`, the growth rescue (activation) was inactive: 37.2%.

Regarding `Cc1nc2ccc(Cl)cc2c(=O)n1-c1ccc([N+](=O)[O-])cc1`, the growth rescue (activation) was inactive: 7.07%.

In the case of `CC1(C(O)(C#CCN2CCCCC2)c2ccccc2)CCCC1` (stereo not drawn), the growth rescue (activation) is inactive: 11.1%.

Take `O=c1c2ccccc2[nH]c(=S)n1-c1ccc(Br)cc1`: the growth rescue (activation) is inactive: 2.61%.

Take `Cc1nn(Cc2ccc(Cl)cc2Cl)c(Cl)c1C(=O)NC1CCCc2ccccc21` (stereo not drawn): the growth rescue (activation) was inactive: 1.74%.

As for `COc1ccc(C(C)=O)cc1CN1CC=C(c2ccccc2)CC1`, the growth rescue (activation) was inactive: 12.9%.

As to `CN(C)C1(CNC(=O)Nc2ccc(Cl)c(Cl)c2)CCCCC1`, the growth rescue (activation) is inactive: 1.59%.

In the case of `CC(=O)Nc1nc(CCl)cs1`, the growth rescue (activation) was inactive: -4.7%.

Consider `CC(C)(C)OC(=O)c1c(N)n(Cc2ccco2)c2nc3ccccc3nc12`, for which the growth rescue (activation) was inactive: 31.5%.

As to `COc1cc(CC2(CCc3ccncc3)C(=O)NC(=O)NC2=O)cc(OC)c1OC`, the growth rescue (activation) is inactive: -11.5%.

With `Cc1cccc(OP(=O)(Oc2ccccc2)OC(c2ccccc2)C(F)(F)F)c1` (stereo not drawn), the growth rescue (activation) was inactive: 10.3%.

Regarding `Cc1cc(C)c(-n2c(O)c(/C=N/N3CCCCC3c3cccnc3)c(=O)[nH]c2=O)c(C)c1` (stereo not drawn), the growth rescue (activation) is inactive: 2.91%.

For the compound `Nc1cc(N2CCNCC2)c([N+](=O)[O-])cc1Cl`, the growth rescue (activation) was inactive: 7.38%.

`CCCC(=O)NC(Oc1ccc(C(C)=O)cc1)C(Cl)(Cl)Cl` (stereo not drawn): the growth rescue (activation) was inactive: 3.78%.

With `C=CCn1c(O)c(C(C)=Nc2cccc(C(=O)O)c2)c(=O)[nH]c1=O`, the growth rescue (activation) was inactive: -13.2%.

Turning to `Cc1ccc2c(c1)C1CN(C)CCC1N2C(=O)c1cccs1` (stereo not drawn), the growth rescue (activation) is inactive: 9.57%.

For `COc1ccccc1OC(=O)c1ccc(C)c(S(=O)(=O)N2CCOCC2)c1`, the growth rescue (activation) is inactive: -4.42%.

On to `COC(=O)Nc1ccc(N=C(N)N[N+](=O)[O-])cc1`, for which the growth rescue (activation) was inactive: 0.472%.

With `Clc1ccc(CNCCc2ccc3c(c2)OCO3)cc1`, the growth rescue (activation) was inactive: -9.24%.

As to `Cn1cccc1/C=C1\C(=O)NC(=O)N(CCC2=CCCCC2)C1=O`, the growth rescue (activation) was inactive: 2.71%.

In the case of `CCOC(=O)C1(CCCc2ccccc2)CCN(C2CCCC2)CC1`, the growth rescue (activation) is inactive: -3.96%.

On to `COc1ccccc1NC(=O)COC(=O)c1cc(C)n(C2CC2)c1C`, for which the growth rescue (activation) is inactive: -15.4%.

As to `CCOP(=S)(OCC)Oc1cc(C)oc(=O)c1Cl`, the growth rescue (activation) is inactive: 0.979%.

Consider `Cc1cc(C)cc(N2C(=O)NC(=O)/C(=C\c3cccn3-c3ccccc3)C2=O)c1`, for which the growth rescue (activation) is inactive: -26.2%.

Take `Nc1nnc(CCN2CCCCC2)s1`: the growth rescue (activation) is inactive: 23.1%.

Take `COCCO[C@H]1CCC2C3CC=C4C[C@@H](O)CC[C@]4(C)C3CC[C@@]21C` (stereo partly drawn): the growth rescue (activation) was inactive: -1.92%.

Consider `CC(C)CCCn1c(O)c(/C=C2/C=CC=N2)c(=O)[nH]c1=O`, for which the growth rescue (activation) was inactive: -5.42%.

Consider `COP(=S)(OC)c1c(C)nn(CCC#N)c1NC(=O)c1ccc(Cl)cc1`, for which the growth rescue (activation) is inactive: 13.1%.

Take `CC/C(=N\Nc1ccccc1)c1c(O)n(C)c(=O)n(C)c1=O`: the growth rescue (activation) is inactive: -36.7%.

Consider `Nc1ccccc1-[n+]1c(-c2ccccc2)cc(-c2ccccc2)cc1-c1ccccc1`, for which the growth rescue (activation) was inactive: 14.4%.

For `COC(=O)C(=O)N1CC2(C)CNCC(C)(C1)C2=O`, the growth rescue (activation) is inactive: -1.42%.

As for `Cc1ccccc1N1C(=O)NC(=O)/C(=C\c2cnn(-c3ccccc3)c2)C1=O`, the growth rescue (activation) was inactive: 13.9%.

As for `O=C(COc1ccc(Cl)cc1)N1CCN(C/C=C/c2ccccc2)CC1`, the growth rescue (activation) is inactive: 16.1%.

For `CN(C)C(CNC(=O)Cc1c(Cl)cccc1Cl)c1ccccc1` (stereo not drawn), the growth rescue (activation) was inactive: -7.1%.

As to `O=C(N/N=C/c1c(O)n(Cc2ccc(F)cc2)c(=S)[nH]c1=O)c1ccncc1`, the growth rescue (activation) was inactive: 9.56%.

As for `CCn1c(O)c(C=Nc2ccc(S(N)(=O)=O)cc2)c(=O)[nH]c1=S`, the growth rescue (activation) was inactive: 18.4%.

As for `CC(C(N)=O)N1CC(c2ccc(Cl)cc2)CC1=O` (stereo not drawn), the growth rescue (activation) is inactive: -9.49%.

On to `CC(=O)O[C@H]1CC[C@@]2(C)C(=CC(=O)C3C2CC[C@@]2(C)C3C[C@H](OC(C)=O)[C@@H]2OC(C)=O)C1` (stereo partly drawn), for which the growth rescue (activation) was inactive: 9.86%.

As for `C[C@]12CCC3C(CC[C@H]4C[C@@H](O)CC[C@]34C)[C@H]1CC[C@H]2O` (stereo partly drawn), the growth rescue (activation) was inactive: 23.6%.

Turning to `Cc1ccsc1C(=O)C1CCCN(Cc2sc(N(C)C)nc2Cl)C1` (stereo not drawn), the growth rescue (activation) was inactive: -2.94%.

With `Cc1ccc(-n2c(O)c(C=NC3CCCCC3N)c(=O)[nH]c2=O)cc1C` (stereo not drawn), the growth rescue (activation) is inactive: 0.141%.

For the compound `CCC(=O)N1N=C(c2c(O)n(CCc3ccccc3)c(=O)[nH]c2=O)CC1c1ccc(OC)c(OC)c1` (stereo not drawn), the growth rescue (activation) was inactive: 19.8%.

Turning to `Cc1ccc(N2Cc3ccccc3C2=N)cc1[N+](=O)[O-]`, the growth rescue (activation) is inactive: 8.36%.

In the case of `CCN(CC)c1ccc(CNCCc2ccc(F)cc2)cc1`, the growth rescue (activation) was inactive: -0.175%.

For the compound `O=c1[nH]c(=S)[nH]c(O)c1C(c1ccccn1)c1c(O)[nH]c(=S)[nH]c1=O`, the growth rescue (activation) was inactive: -3.1%.

Regarding `COc1cc(/C=C/c2nc3ccccc3c(=O)n2-c2cccc(O)c2)ccc1O`, the growth rescue (activation) is inactive: 2.73%.

Consider `CC1N=C(c2ccccc2Cl)c2cc(Br)ccc2NC1=O` (stereo not drawn), for which the growth rescue (activation) is inactive: -2.73%.

Take `COc1ccc(-n2c(O)c(C=NCCN3CCN(C(C)=O)CC3)c(=O)[nH]c2=S)cc1`: the growth rescue (activation) is inactive: -11.8%.
